# Data reported in PMC10668032.
# Some of the results follow. At the low end of the ranking the order means little.
# Target: SIX1-Q177R homeodomain (UniProt Q15475)
# Assay: universal protein binding microarray
# Settings: Universal all-10-mer PBM (8x60K, AMADID 030236), 300 nM GST-tagged protein, Alexa Fluor 488 anti-GST; buffer, salt, pH and temperature not stated; high values mean tight binding; most listed sequences are background and not binding sites; double strand, one strand shown
row,Sequence,binding signal
1,CTTGTCGA,-0.0662 E-score
2,CACGCTGG,0.159 E-score
3,ACCGGGGA,0.149 E-score
4,CCGACTAA,0.125 E-score
5,GTCCCTCA,-0.0613 E-score
6,GAAGAAGA,0.0352 E-score
7,AAGAGATC,-0.0461 E-score
8,CCACCATA,-0.0846 E-score
9,ACCGTTGA,0.0737 E-score
10,CGTGGGGA,0.0815 E-score
11,GGATGGTA,0.133 E-score
12,ACATGGTG,0.33 E-score
13,TCCTCAGA,-0.139 E-score
14,GGCGGTCA,-0.176 E-score
15,GTATCTCA,0.158 E-score
16,AGGCTGTA,-0.038 E-score
17,CACATATG,0.145 E-score
18,ACCTATTA,-0.0416 E-score
19,AGGGTCAT,0.0915 E-score
20,ATTGCTGA,-0.106 E-score
21,CATTTTCG,-0.216 E-score
22,CTGGAGCA,-0.035 E-score
23,ATGGGGCA,-0.0582 E-score
24,AACCACTG,-0.166 E-score

row,Sequence,binding signal
1,GTTGCACA,0.13 E-score
2,AGACTGGC,-0.125 E-score
3,TAACGATA,-0.0377 E-score
4,GAAGTCTA,-0.0831 E-score
5,CAGAGTGC,0.0429 E-score
6,GACGGGGC,-0.0461 E-score
7,CTTAGGGC,-0.0327 E-score
8,AGTGTGCG,0.132 E-score
9,CGTTGGCA,-0.11 E-score
10,CCAACCAG,-0.148 E-score
11,GAGGTTAC,0.0402 E-score
12,TCGCTTCA,-0.179 E-score
13,AGACTGAC,-0.158 E-score
14,CAGGCCGC,-0.24 E-score
15,AGCAATCA,-0.257 E-score
16,GAACTCGA,-0.00737 E-score
17,AGTTTTCA,-0.327 E-score
18,ATCCCTTC,-0.0326 E-score
19,CGATGGCC,-0.338 E-score
20,ACTTTACG,-0.0217 E-score
21,GCTGACCC,0.045 E-score
22,GAACATGA,-0.0589 E-score
23,ATCGATAC,0.219 E-score
24,ACTTGCAA,-0.21 E-score

row,Sequence,binding signal
1,CGGTGCTC,0.218 E-score
2,CTAAGGTC,-0.0594 E-score
3,TAGTGAAA,-0.0297 E-score
4,AATAGACT,-0.294 E-score
5,GTAGCGGA,-0.0703 E-score
6,AGCCAGCA,-0.0825 E-score
7,ATGTATTA,-0.00617 E-score
8,TACCGATA,-0.00915 E-score
9,AAGCCGCC,-0.166 E-score
10,CGCAGCAC,0.0574 E-score
11,CTGGTGGC,-0.106 E-score
12,CCAGTACA,0.242 E-score
13,ACGAGACT,-0.196 E-score
14,GAACTGTA,-0.246 E-score
15,AAGTATTA,-0.06 E-score
16,ATGGTGTC,0.486 E-score
17,AGCTTACT,-0.113 E-score
18,CTATGTAC,0.0488 E-score
19,AATTCGCG,0.0887 E-score
20,CCTTCGAG,-0.159 E-score
21,CCGTATAC,0.0376 E-score
22,ACGGCAAA,-0.00572 E-score
23,ACAAGTGC,-0.016 E-score
24,AGTATCAC,0.145 E-score

row,Sequence,binding signal
1,CCATTTAA,-0.155 E-score
2,ATCTCTAG,-0.18 E-score
3,GAACTGCA,-0.0936 E-score
4,AACGGTAC,-0.178 E-score
5,AATGGAAC,-0.0894 E-score
6,CCTCGTGC,0.0348 E-score
7,AATTCCAC,-0.0712 E-score
8,ATCAAAAG,-0.145 E-score
9,CGCCTAGA,-0.118 E-score
10,ACTTCACG,-0.0262 E-score
11,GGGTGTAC,0.483 E-score
12,CCGTGATA,-0.0805 E-score
13,CTAAATTA,-0.281 E-score
14,ACGCCTGC,0.0131 E-score
15,GTCACCAC,-0.0577 E-score
16,AGAGGCCG,-0.0544 E-score
17,GAGCGACA,0.185 E-score
18,ACCAGTGA,0.189 E-score
19,CCCCCCAA,0.146 E-score
20,AGTTGATG,-0.075 E-score
21,CTCGGCTA,-0.0973 E-score
22,ATGAAAGA,-0.128 E-score
